# Source: the supplement of paper PMC3334620
# Over roughly 33,000 sequences, “E-score (-0.5 to 0.5)” has its median near -0.016; the highest 2% begin near 0.31. Some of the results follow.
# Target: Cst6 (UniProt P40535)
# Assay: PBM E-score (8-mer binding enrichment) (E-score (-0.5 to 0.5)); higher = stronger / more preferred TF binding; most listed sequences are background and not binding sites
# Settings: protein concentration: 200 nM; construct: GST-DNA-binding domain
# Method: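 Universal 'all 10-mer' protein binding microarrays (Agilent AMADID 015681) probed with GST-tagged S. cerevisiae TFs (full-length or DBD) made by in vitro transcription/translation (PURExpress), about 100-200 nM. Bound TF was detected with fluorescent anti-GST. Each ungapped 8-mer (which stands for itself and its reverse complement) is scored by the PBM enrichment score (E-score), a modified Wilcoxon-Mann-Whitney statistic from -0.5 to +0.5, computed with the Universal PBM Analysis Suite. Scale: above 0.35 generally sequence-specific binding.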
row,Sequence,PBM E-score
1,ACCAATAA,0.216
2,CTGCGTAA,0.195
3,CTTTTGCA,0.175
4,CCTTATCG,0.0828
5,GCTTCGCC,-0.307
6,AGGTACGC,-0.097
7,AGCCGAAT,0.0133
8,AACGCTGG,-0.131
9,ACGTATTC,0.285
10,CATATCAA,0.256
11,GGCCCCAA,-0.149
12,CGCTAGGC,-0.174
13,AAGATAGA,-0.0664
14,CAGGTATA,0.102
15,ACTTGCGG,-0.281
16,ACCAGCTG,-0.278
17,TACGTACA,0.336
18,AAGTCAGG,-0.165
19,ATCCTCTA,-0.185
20,GGTAAGAA,-0.11
21,ATTTTCAG,0.196
22,TCGACAAA,0.128
23,GCTAGCCC,-0.229
24,CACGCGGG,-0.0196

row,Sequence,PBM E-score
1,CGAGGCTC,-0.0398
2,CTAGCGGA,-0.264
3,GTAAACCA,-0.0463
4,ATTCGTAG,0.0897
5,CTCCCCAC,-0.201
6,AGTAATGC,0.0951
7,AACCGAGA,-0.00338
8,AGATGCAT,-0.0176
9,CAACTCAG,-0.0943
10,ACCTTACG,0.164
11,GGATATTA,0.14
12,AGGAGACC,-0.335
13,CGTGTGCC,0.0208
14,GCAGCCCC,-0.349
15,ATGGCGCG,0.043
16,CCGTGCGC,0.116
17,AACGTCGG,-0.174
18,ATAGCTTA,0.123
19,CATGATGC,0.28
20,ATGGCTAG,-0.0587
21,GCGACCGA,-0.00726
22,AACTTCCC,-0.089
23,GGGTTAAA,-0.06
24,AATGGAGC,0.0703

row,Sequence,PBM E-score
1,GGTCCGAC,-0.108
2,CAGTTTCG,0.0709
3,CTTCTGTA,0.102
4,CCTCCCCG,-0.0606
5,TAACCGCA,0.242
6,AGGAATTA,0.192
7,CGATCAAA,-0.0394
8,ATGCTTGG,-0.102
9,CTACGAGA,-0.168
10,ATCGATCC,-0.0396
11,CATGCGCG,0.0648
12,AAGAAGTC,-0.0391
13,AGAAGAGA,-0.0909
14,ATTTTTCA,0.197
15,AACTCGTA,0.0444
16,CGCTCTGC,-0.0673
17,ATTTCCTC,0.148
18,CATAGCGG,-0.261
19,GCCGCGGC,0.31
20,AACGCACA,0.0324
21,ATCATGGA,0.0954
22,CGAGAAAG,0.0759
23,AAGTTTGC,0.092
24,CGAGCAGA,-0.24

row,Sequence,PBM E-score
1,AAAAACTT,0.19
2,CCTGCTCC,-0.172
3,AATCATGA,0.338
4,TCAAGACA,0.0551
5,AGTTTGGC,-0.0468
6,AATAAAAG,0.177
7,CCAAGTCA,-0.139
8,GGGACTCA,-0.353
9,TCGCACGA,0.0411
10,CAGATTCG,-0.0278
11,CCAGACCC,-0.328
12,ACCAGATG,-0.0797
13,CCGAGGGA,-0.373
14,CGGGCCCC,-0.311
15,GGTGACAC,0.163
16,AGGCGCCA,0.0572
17,CTGTGGGA,-0.218
18,GCGATAGC,-0.113
19,TAGAGAAA,-0.0379
20,CTAATTTC,0.128
21,CAAATACA,0.275
22,GCTTCATA,0.0223
